Measurements taken from PubChem BioAssay AID1460 (National Center for Advancing Translational Sciences (NCATS), 2008).
“And” between values parts separate entries of the source, which are not always exact repeats. Identical values can stand only once. The campaign covered roughly 270,000 compounds. About 5,800 (2.1%) were called active. Inconclusive results, whose numbers are uncertain, are shown with a selection of clear calls. The call rests on the fitted dose curve; in most records, active means well fitted inhibition curve with a large enough effect; inconclusive means small, poorly fitted or top-dose-only effect; inactive means flat fitted curve, though single readings scatter. A potency beside an inconclusive call is a rough fit, not a confirmed value.

The compounds below were run against Microtubule-associated protein tau (Homo sapiens) (UniProt P10636) (assay: qHTS for Inhibitors of Tau Fibril Formation, Thioflavin T Binding). Conditions: recombinant tau K18 P301L (four-repeat tau fragment), heparin-induced fibrillization, ThT fluorescence; series mostly up to 57.4 µM; activity, negative = inhibition: at the top concentration.
Outline: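 Aggregation was driven by heparin (20 uM final) acting on recombinant tau […] bearing P301L in 100 mM sodium acetate pH 7; fibrils were detected with Thioflavin T.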
Further: nearly all actives have a fitted effect of over 55% in size.
On the % scale 0 is the no-effect control and ±100 the full control effect; potency means the concentration at half of the fitted maximal effect; tags describe the fitted curve by direction and shape.

Chain of UniProt P10636 (P10636 whole entry, looked up, the tested form may be a part): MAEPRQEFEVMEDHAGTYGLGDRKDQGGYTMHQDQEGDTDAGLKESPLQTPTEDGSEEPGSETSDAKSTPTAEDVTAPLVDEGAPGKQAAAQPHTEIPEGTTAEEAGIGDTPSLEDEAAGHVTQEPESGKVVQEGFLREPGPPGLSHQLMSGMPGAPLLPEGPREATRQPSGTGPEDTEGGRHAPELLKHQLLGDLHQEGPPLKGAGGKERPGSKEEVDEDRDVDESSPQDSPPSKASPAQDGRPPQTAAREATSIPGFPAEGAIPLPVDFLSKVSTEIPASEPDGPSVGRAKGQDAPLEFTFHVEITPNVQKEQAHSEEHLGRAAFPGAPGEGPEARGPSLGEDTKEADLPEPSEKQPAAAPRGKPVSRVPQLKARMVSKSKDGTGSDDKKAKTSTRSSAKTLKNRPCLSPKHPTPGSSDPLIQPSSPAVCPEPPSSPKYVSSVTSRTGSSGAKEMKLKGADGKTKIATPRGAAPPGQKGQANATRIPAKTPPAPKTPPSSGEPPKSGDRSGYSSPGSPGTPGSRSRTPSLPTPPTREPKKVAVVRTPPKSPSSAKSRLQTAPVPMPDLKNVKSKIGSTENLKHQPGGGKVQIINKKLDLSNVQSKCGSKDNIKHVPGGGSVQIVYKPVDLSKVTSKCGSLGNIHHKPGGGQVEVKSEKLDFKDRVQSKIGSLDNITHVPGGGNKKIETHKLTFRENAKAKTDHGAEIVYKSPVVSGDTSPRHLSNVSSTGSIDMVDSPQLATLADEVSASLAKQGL

| SMILES | activity, negative = inhibition | Potency |
| --- | --- | --- |
| O=C(CSc1nc2ccccc2n1Cc1ccccc1)N1CCN(c2ccc(F)cc2)CC1 | inactive: -19.5% |  |
| NNc1ccc(Cl)nn1 |  | inconclusive: 17.8 µM [inhibitor, partial curve] |
| Nc1nnc2c(n1)[nH]c1ccccc12 |  | inconclusive: 11.2 µM [inhibitor, partial curve] |
| Clc1cccc(-c2ccc(/C=N/n3cnnc3)o2)c1Cl | inactive: -8.74% |  |
| CCCCNc1nc2c(c(=O)n(Cc3ccc(Cl)cc3)c(=O)n2C)n1C |  | inconclusive: 44.7 µM [inhibitor, single point] |
| CCc1nnc(N/N=C/c2c(C)[nH]c3ccccc23)n1N |  | inconclusive: 28.2 µM [inhibitor, single point] |
| CN1C(=O)/C(=C/c2cn(CC(=O)N3CCCCC3)c3ccccc23)c2ccccc21 |  | inconclusive: 14.1 µM [inhibitor, partial curve] |
| O=C(NC1CCCCCCC1)c1cc(COc2ccc3ncccc3c2)on1 |  | inconclusive: 5.62 µM [inhibitor, partial curve] |
| CCCC(=O)N(c1ccc2oc3c(c2c1)CCCC3)S(=O)(=O)c1cc(C)ccc1C |  | inconclusive: 20 µM [inhibitor, single point] |
| Cc1ccc2c(c1)sc(C)[n+]2CCCS(=O)(=O)[O-] |  | inconclusive: 22.4 µM [inhibitor, single point] |
| CCOC(=O)N/N=C/c1cn(Cc2ccccc2Cl)c2ccccc12 |  | inconclusive: 10 µM [inhibitor, partial curve] |
| Cc1ccc(C(=O)Nc2ccc(N3CCN(S(C)(=O)=O)CC3)cc2)cc1 |  | inconclusive: 1.12 µM [inhibitor, full curve] |
| COc1ccccc1-n1c(C)nc(=O)c(-c2ccccc2)c1C | inactive: 11.7% |  |
| O=C(/C=C\c1ccccc1[N+](=O)[O-])Nc1ccccc1 |  | inconclusive: 15.8 µM [inhibitor, partial curve] |
| COc1cc(CN2CCN(S(=O)(=O)c3ccccc3)CC2)cc(OC)c1O |  | inconclusive: 14.1 µM [inhibitor, partial curve] |
| CC(O)C(NS(=O)(=O)c1ccc(Cl)cc1)C(=O)OCC(=O)c1c[nH]c2ccccc12 (centres undefined) | inactive: 1.15% |  |
| CCCOc1ccc(NC(=O)CC2C(=O)N(C)C(=S)N2Cc2ccc3c(c2)OCO3)cc1 (centres undefined) |  | inconclusive: 44.7 µM [inhibitor, single point] |
| CNc1ccc(Br)cc(C(=O)/C=C/c2ccc(Cl)cc2Cl)c1=O |  | active: 10 µM |
| CC1CCN(c2ccc(/C=N\Nc3nncn3N)cc2[N+](=O)[O-])CC1 |  | active: 10 µM |
| CC(C)NC(=O)/C(C#N)=C/c1ccc(N(C)C)o1 |  | inconclusive: 28.2 µM [inhibitor, partial curve] |
| CCCN(CCC)C(=O)Cn1c(=O)c2ccccc2n2c(=S)sc(-c3ccccc3C)c12 |  | inconclusive: 3.16 µM [inhibitor, single point] |
| Cc1ccc(Nc2ncccc2C(=O)O)cc1C |  | inconclusive: 22.4 µM [inhibitor, partial curve, poor fit] |

| SMILES | activity, negative = inhibition | Potency |
| --- | --- | --- |
| Cc1ccc(C)c(-c2[nH]c3c(c2-c2c(-n4cccc4)n(C)c(=O)[nH]c2=O)c(=O)[nH]c(=O)n3C)c1 | inactive: 5.35% |  |
| CCN(CC)S(=O)(=O)c1ccc2c(c1)N(CC(=O)N1CCN(c3ccc(F)cc3)CC1)C(=O)CO2 | inactive: -4.83% |  |
| NNC(=O)c1ccc(COc2ccc([N+](=O)[O-])cc2)o1 |  | inconclusive: 31.6 µM [inhibitor, partial curve] |
| CCc1ccccc1NC(=S)N(Cc1ccc(C(=O)O)cc1)Cc1ccc(OC)c(OC)c1 |  | inconclusive: 20 µM [inhibitor, single point] |
| COC(=O)C/C=N/N=C1/NC(=O)/C(=C/C(=O)O)S1 |  | inconclusive: 11.2 µM [inhibitor, partial curve] |
| CCCn1c(SCC(=O)c2ccc(CC)cc2)n[nH]c1=O |  | inconclusive: 22.4 µM [inhibitor, single point] |
| COc1cc(C2CC(=O)Nc3cc4c(cc32)OCCO4)cc(Br)c1OC (centres undefined) | inactive: 2% |  |
| Cc1cc(Nc2cccc(Cl)c2)nc2ccc(NC(=O)Cc3cccc(C(F)(F)F)c3)cc12 |  | inconclusive: 10 µM [inhibitor, partial curve] |
| Cc1csc(NC(=O)CSc2nc(C)cs2)n1 | inactive: 1.88% |  |
| O=[N+]([O-])c1ccc(-c2nc(=S)c3c(o2)CCCC3)cc1 |  | inconclusive: 11.2 µM [inhibitor, partial curve] |
| COc1ccc2c(c1)oc(=O)c1cc(OC)ccc12 |  | inconclusive: 20 µM [inhibitor, single point] |
| CCCc1cc(C(N)=O)c(NC(=O)c2cc(C)on2)s1 |  | inconclusive: 10 µM [inhibitor, partial curve] |
| COc1ccc(N2CCN(C(=O)CCSCc3ccccc3F)CC2)cc1 |  | inconclusive: 14.1 µM [inhibitor, partial curve] |
| CC(=O)Nc1ccc(-c2cc(N)n(-c3ccccc3)n2)cc1 |  | inconclusive: 12.6 µM [inhibitor, partial curve, poor fit] |
| O=C(CSCC(=O)N1CCCCC1)Nc1nc(-c2ccc(Cl)s2)cs1 |  | inconclusive: 17.8 µM [inhibitor, partial curve] |
| COc1ccccc1/C=C1\SC(=S)N(CC(=O)Nc2nnc(C)s2)C1=O |  | inconclusive: 7.08 µM [inhibitor, partial curve] |
| Fc1ccc(-c2noc3ncnc(NC4CCCCC4)c23)cc1 | inactive: -7.86% |  |
| O=c1c(=Nc2ccccc2O)c(=O)c2ccccc12 |  | active: 10 µM |
| Cc1ccccc1C(=O)NC(=S)Nc1ccc(S(=O)(=O)N(C)c2ccccc2)cc1 | inactive: -7.08% |  |
| COc1cc(C)c2c(c1C=O)Oc1c(c(C)c(O)c3c1C(O)OC3=O)OC2=O (centres undefined) |  | active: 7.94 µM and active: 14.1 µM |
| C/C(=N\Nc1nc2ccccc2nc1C)c1ccccc1O |  | inconclusive: 8.91 µM [inhibitor, partial curve, poor fit] |
| CC1(COc2ccc(C[C@H]3SC(=O)NC3=O)cc2)CCCCC1 |  | inconclusive: 39.8 µM [inhibitor, single point] |
